In the supplement of paper PMC8728848:
Some of the results follow.

How the values were obtained:
Test in all cases: glycan array binding signal (z-score within array); higher = stronger binding
Conditions in all cases: glycan notation: IUPAC condensed, linker removed
[1] = target: Neu5Ac(a2-3)Gal(b1-4)GlcNAc(b1-2)[Neu5Ac(a2-3)Gal(b1-4)GlcNAc(b1-4)]Man(a1-3)[GlcNAc(b1-4)][Neu5Ac(a2-3)Gal(b1-4)GlcNAc(b1-4)Man(a1-6)]Man(b1-4)GlcNAc(b1-4)GlcNAc
In short: (§1)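 Negative Z-scores can be read as non-binding. The Z-score is calculated within each array and then averaged across arrays of one protein sequence at different concentrations or buffers and across linkers. Arrays, 3228 in all, were curated from the Consortium for Functional Glycomics database and kept only where the protein sequence was available.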

[2] = target: Neu5Ac(a2-3)Gal(b1-4)GlcNAc(b1-2)[Neu5Ac(a2-3)Gal(b1-4)GlcNAc(b1-6)]Man(a1-6)[Neu5Ac(a2-3)Gal(b1-4)GlcNAc(b1-2)Man(a1-3)]Man(b1-4)GlcNAc(b1-4)GlcNAc
In short: as §1

[3] = target: Neu5Ac(a2-3)Gal(b1-4)GlcNAc(b1-2)[Neu5Ac(a2-3)Gal(b1-4)GlcNAc(b1-6)]Man(a1-6)[Neu5Ac(a2-3)Gal(b1-4)GlcNAc(b1-2)Man(a1-3)][GlcNAc(b1-4)]Man(b1-4)GlcNAc(b1-4)GlcNAc
In short: as §1

[4] = target: Neu5Ac(a2-3)Gal(b1-4)GlcNAc(b1-3)Gal
In short: as §1

[5] = target: Neu5Ac(a2-3)Gal(b1-4)GlcNAc(b1-3)Gal(b1-3)GlcNAc
In short: as §1

[6] = target: Neu5Ac(a2-3)Gal(b1-4)GlcNAc(b1-3)Gal(b1-4)GlcNAc
In short: as §1

[7] = target: Neu5Ac(a2-3)Gal(b1-4)GlcNAc(b1-3)Gal(b1-4)GlcNAc(b1-2)Man(a1-3)[Neu5Ac(a2-3)Gal(b1-4)GlcNAc(b1-3)Gal(b1-4)GlcNAc(b1-2)Man(a1-6)]Man(b1-4)GlcNAc(b1-4)GlcNAc
In short: as §1

[8] = target: Neu5Ac(a2-3)Gal(b1-4)GlcNAc(b1-3)Gal(b1-4)GlcNAc(b1-3)Gal(b1-4)GlcNAc
In short: as §1

[9] = target: Neu5Ac(a2-3)Gal(b1-4)GlcNAc(b1-3)Gal(b1-4)GlcNAc(b1-3)Gal(b1-4)GlcNAc(b1-2)Man(a1-3)[Neu5Ac(a2-3)Gal(b1-4)GlcNAc(b1-3)Gal(b1-4)GlcNAc(b1-3)Gal(b1-4)GlcNAc(b1-2)Man(a1-6)]GalNAc
In short: as §1

[10] = target: Neu5Ac(a2-3)Gal(b1-4)GlcNAc(b1-3)Gal(b1-4)GlcNAc(b1-3)GalNAc
In short: as §1

[11] = target: Neu5Ac(a2-3)Gal(b1-4)GlcNAc(b1-3)Gal(b1-4)GlcNAc(b1-3)[Neu5Ac(a2-3)Gal(b1-4)GlcNAc(b1-3)Gal(b1-4)GlcNAc(b1-6)]GalNAc
In short: as §1

[12] = target: Neu5Ac(a2-3)Gal(b1-4)GlcNAc(b1-3)Gal(b1-4)GlcNAc(b1-6)[Gal(b1-3)]GalNAc
In short: as §1

[13] = target: Neu5Ac(a2-3)Gal(b1-4)GlcNAc(b1-3)Gal(b1-4)[Fuc(a1-3)]GlcNAc
In short: as §1

[14] = target: Neu5Ac(a2-3)Gal(b1-4)GlcNAc(b1-3)GalNAc
In short: as §1

[15] = target: Neu5Ac(a2-3)Gal(b1-4)GlcNAc(b1-3)[Neu5Ac(a2-3)Gal(b1-4)GlcNAc(b1-6)]GalNAc
In short: as §1

[16] = target: Neu5Ac(a2-3)Gal(b1-4)GlcNAc(b1-6)GalNAc
In short: as §1

[17] = target: Neu5Ac(a2-3)Gal(b1-4)GlcNAc(b1-6)[Gal(b1-3)]GalNAc
In short: as §1

[18] = target: Neu5Ac(a2-3)Gal(b1-4)GlcNAc(b1-6)[Neu5Ac(a2-3)Gal(b1-3)]GalNAc
In short: as §1

[19] = target: Neu5Ac(a2-3)Gal(b1-4)GlcNAc6S
In short: as §1

[20] = target: Neu5Ac(a2-3)Gal(b1-4)[Fuc(a1-3)]GlcNAc
In short: as §1

[21] = target: Neu5Ac(a2-3)Gal(b1-4)[Fuc(a1-3)]GlcNAc(b1-2)Man
In short: as §1

[22] = target: Neu5Ac(a2-3)Gal(b1-4)[Fuc(a1-3)]GlcNAc(b1-3)Gal
In short: as §1

[23] = target: Neu5Ac(a2-3)Gal(b1-4)[Fuc(a1-3)]GlcNAc(b1-3)Gal(b1-4)GlcNAc
In short: as §1

[24] = target: Neu5Ac(a2-3)Gal(b1-4)[Fuc(a1-3)]GlcNAc(b1-3)Gal(b1-4)[Fuc(a1-3)]GlcNAc(b1-3)Gal(b1-4)[Fuc(a1-3)]GlcNAc
In short: as §1

[25] = target: Neu5Ac(a2-3)Gal(b1-4)[Fuc(a1-3)]GlcNAc(b1-3)GalNAc
In short: as §1

[26] = target: Neu5Ac(a2-3)Gal(b1-4)[Fuc(a1-3)]GlcNAc(b1-6)[Gal(b1-3)]GalNAc
In short: as §1

[27] = target: Neu5Ac(a2-3)Gal(b1-4)[Fuc(a1-3)]GlcNAc(b1-6)[Neu5Ac(a2-3)Gal(b1-3)]GalNAc
In short: as §1

[28] = target: Neu5Ac(a2-3)Gal(b1-4)[Fuc(a1-3)]GlcNAc6S
In short: as §1

[29] = target: Neu5Ac(a2-3)Gal6S(b1-4)GlcNAc
In short: as §1

[30] = target: Neu5Ac(a2-3)Gal6S(b1-4)[Fuc(a1-3)]GlcNAc
In short: as §1

Neu5Ac(a2-3)GalNAc = target: Neu5Ac(a2-3)GalNAc
In short: as §1

[31] = target: Neu5Ac(a2-3)GalNAc(b1-4)GlcNAc
In short: as §1

[32] = target: Neu5Ac(a2-3)[GalNAc(b1-4)]Gal(b1-4)Glc
In short: as §1

[33] = target: Neu5Ac(a2-3)[GalNAc(b1-4)]Gal(b1-4)GlcNAc
In short: as §1

[34] = target: Neu5Ac(a2-3)[GalNAc(b1-4)]Gal(b1-4)GlcNAc(b1-3)GalNAc
In short: as §1

[35] = target: Neu5Ac(a2-3)[Neu5Ac(a2-6)]GalNAc
In short: as §1

Neu5Ac(a2-6)Gal = target: Neu5Ac(a2-6)Gal
In short: as §1

B1: Si Bti9 1b-HA (Solanum lycopersicum) (protein)
chain: MFESRPRSVLSLGVFVILVYLSSVPLPVNSQCNRGCDLALASFYVWRGSNLTLISEMFSTSIADIVSYNNRDNIPNQDSVIAGTRINIPFRCDCLNDGEVLGHAFPYRVKSGDTYDLVARNYSDLTTAQWMMKFNSYPENNIPNTVNLSVVVNCSCGNSDVSKDFGLFVTYPVRAEDNLTSVASAANVSEDIIRRYNPAAVSILDIGQGIIYIPGRDRNGNFPPLPTSTDGLSGGAKAPLFFNPAFLYKVVELKLAGRSRTSGYPYDVPDYAGYPYDVPDYALEVLFQ
Q: For B1, which “glycan array binding signal (z-score)” value [1] is on record?
A: Its value is -0.546.

Q: What about the “glycan array binding signal (z-score)” value [2] of the same binder?
A: Its value is 0.923.

Q: What about the “glycan array binding signal (z-score)” value [3] of the same binder?
A: Its value is -0.676.

Q: What about the “glycan array binding signal (z-score)” value [4] of the same binder?
A: Its value is -0.167.

Q: What about the “glycan array binding signal (z-score)” value [5] of the same binder?
A: Its value is -0.364.

Q: What about the “glycan array binding signal (z-score)” value [6] of the same binder?
A: Its value is -0.486.

Q: What about the “glycan array binding signal (z-score)” value [7] of the same binder?
A: Its value is 0.285.

Q: What about the “glycan array binding signal (z-score)” value [8] of the same binder?
A: The value was -0.576.

Q: And the “glycan array binding signal (z-score)” value [9]?
A: The value was 1.35.

Q: What about the “glycan array binding signal (z-score)” value [10] of the same binder?
A: Its value is -0.222.

Q: And the “glycan array binding signal (z-score)” value [11]?
A: The value was -0.139.

Q: And the “glycan array binding signal (z-score)” value [12]?
A: The value was 0.187.

Q: What about the “glycan array binding signal (z-score)” value [13] of the same binder?
A: Its value is 0.251.

Q: What about the “glycan array binding signal (z-score)” value [14] of the same binder?
A: Its value is -0.144.

Q: What about the “glycan array binding signal (z-score)” value [15] of the same binder?
A: The value was -0.367.

Q: And the “glycan array binding signal (z-score)” value [16]?
A: Its value is -0.422.

Q: What about the “glycan array binding signal (z-score)” value [17] of the same binder?
A: Its value is -0.486.

Q: What about the “glycan array binding signal (z-score)” value [18] of the same binder?
A: The value was -0.297.

Q: And the “glycan array binding signal (z-score)” value [19]?
A: Its value is -0.072.

Q: What about the “glycan array binding signal (z-score)” value [20] of the same binder?
A: Its value is -0.22.

Q: And the “glycan array binding signal (z-score)” value [21]?
A: Its value is -0.414.

Q: And the “glycan array binding signal (z-score)” value [22]?
A: The value was -0.151.

Q: What about the “glycan array binding signal (z-score)” value [23] of the same binder?
A: The value was -0.417.

Q: And the “glycan array binding signal (z-score)” value [24]?
A: Its value is -0.379.

Q: And the “glycan array binding signal (z-score)” value [25]?
A: Its value is -0.068.

Q: And the “glycan array binding signal (z-score)” value [26]?
A: The value was 0.154.

Q: What about the “glycan array binding signal (z-score)” value [27] of the same binder?
A: Its value is -0.029.

Q: What about the “glycan array binding signal (z-score)” value [28] of the same binder?
A: The value was -0.438.

Q: What about the “glycan array binding signal (z-score)” value [29] of the same binder?
A: Its value is -0.008.

Q: And the “glycan array binding signal (z-score)” value [30]?
A: The value was -0.38.

Q: And the “glycan array binding signal (z-score)” value (Neu5Ac(a2-3)GalNAc)?
A: Its value is -0.396.

Q: What about the “glycan array binding signal (z-score)” value [31] of the same binder?
A: The value was -0.226.

Q: And the “glycan array binding signal (z-score)” value [32]?
A: The value was -0.316.

Q: What about the “glycan array binding signal (z-score)” value [33] of the same binder?
A: Its value is -0.124.

Q: What about the “glycan array binding signal (z-score)” value [34] of the same binder?
A: The value was -0.233.

Q: What about the “glycan array binding signal (z-score)” value [35] of the same binder?
A: The value was 0.12.

Q: And the “glycan array binding signal (z-score)” value (Neu5Ac(a2-6)Gal)?
A: Its value is -0.348.
